Test results: PubChem BioAssay AID504845 (National Center for Advancing Translational Sciences (NCATS), 2011)
Values joined by “and” are separate entries in the source; they are usually repeats but may differ in a detail not shown here. Equal values may be shown once. Out of some 390,000 compounds screened, about 150 (0.038%) were called active. About 3% were inconclusive and are not listed. Calls follow the shape of the dose curve; as a rule, active = well fitted inhibition curve with a large enough effect; inconclusive = small, poorly fitted or top-dose-only effect; inactive = no such curve, though single readings can be large or run the other way. The entries are a selection whose mix differs from that of the whole data set. More than one record can exist for a structure, and the calls need not agree.

biological target: Regulator of G-protein signaling 4 (Homo sapiens) (UniProt P49798); test: Inhibitors of Regulator of G Protein Signaling (RGS) 4: qHTS; details: Transcreener GDP fluorescence polarization, RGS4-accelerated GTP hydrolysis; series mostly up to 114 µM; activity change, negative = inhibition: at the top concentration; also: nearly all actives have a fitted effect of over 75% in size
In short: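 MLSMR compounds (23 nl, pin-transferred) preincubated 10 min at room temperature with a 500nM (2x) first reagent, then RGS4 at 900nM (2x) plus Transcreener GDP mix added; fluorescence polarization (620/688 nm) read before and after 90 min at 30 °C.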
% is scaled to controls: 0 for no effect and ±100 for the full control effect; potency is read from the fitted curve at half-maximal effect.

Chain of UniProt P49798 (P49798 whole entry, looked up): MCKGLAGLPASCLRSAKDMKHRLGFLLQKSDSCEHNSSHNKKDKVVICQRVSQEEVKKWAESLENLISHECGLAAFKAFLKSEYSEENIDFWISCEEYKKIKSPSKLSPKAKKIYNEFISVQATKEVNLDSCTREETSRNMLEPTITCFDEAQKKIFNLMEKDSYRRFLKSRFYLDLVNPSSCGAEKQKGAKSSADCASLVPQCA

SMILES | activity change, negative = inhibition | Potency
CC(=O)N[C@@H](CS)C(=O)O | inactive: 2.53% | 
O=c1[nH]c(=O)c2nc3ccccc3nc2[nH]1 | inactive: -9.84% | 
O=C(CSc1nnc(SCc2ccccc2)s1)N/N=C/C=C\c1ccco1 | inactive: -34.1% | 
Cn1c(=O)cc(OCC(=O)N2CCN(c3ccccc3F)CC2)c2ccccc21 | inactive: 3.58% | 
C[c-]1[c-](C)[c-](C)[c-](C)[c-]1C.[Fe].c1cc2nccc(N3CCCC3)[c-]2c1 (stereo not drawn) | inactive: -35% | 
O=C(CSc1nc2cc3c(cc2c(=O)n1CCC1=CCCCC1)OCO3)NCc1ccco1 | inactive: 57% | 
CC1(C)NC(=O)N(CC(O)CN2CCOCC2)C1=O (stereo not drawn) | inactive: 79.7% | 
O=C(COc1nncc2ccccc12)NCCC1=CCCCC1 | inactive: 55.2% | 
Cc1ccc(OCc2cc(C(=O)N3CCCC3)no2)cn1 | inactive: 57.5% | 
Oc1cc2c(cc1O)CN(C(=S)NCCc1ccc(Cl)cc1)CCC2 |  | active: 16.8 µM
COCCN(C(=O)c1ccco1)C(C(=O)NC1CCCC1)c1cccs1 (stereo not drawn) | inactive: 54.8% | 
O=C1Cc2c([nH]c3ccc(Br)cc23)-c2ccccc2N1 | inactive: -29.4% | 
Cc1coc2c1C(=O)C(=O)c1c-2ccc2c1CCCC2(C)C | inactive: -44% | 
CC(=C/c1ccco1)/C=N/NC(=O)c1nnn(-c2nonc2N)c1CN(C)C | inactive: -34.4% | 
NC(=O)CCNC(=O)c1ccc(Cl)cc1 | inactive: 60.1% | 
COc1ccccc1CNC(=O)C1CCCN(S(=O)(=O)c2cccc3nsnc23)C1 (stereo not drawn) | inactive: 57.4% | 
O=C(CCCN1C(=O)/C(=C\c2cccs2)SC1=S)Nc1ccccn1 | inactive: -3.2% | 
O=c1c(-c2ccc(O)cc2)coc2cc(O)ccc12 | inactive: -5.39% | 
CC(=O)CCCCn1c(=O)c2c(ncn2C)n(C)c1=O |  | inactive
Cc1c(N2C(=O)/C(=C/C3CC=CCC3)SC2=S)c(=O)n(-c2ccccc2)n1C (stereo not drawn) | inactive: -42.9% | 
C[C@@H](N)C1CCC(C(=O)Nc2ccncc2)CC1 (stereo partly drawn) |  | inactive
Cc1ccc2cc3cc(C(=O)N4CCN(C(=O)c5ccco5)CC4)sc3nc2c1 | inactive: 97.1% | 
CC(C(=O)O)c1cccc(C(=O)c2ccccc2)c1 (stereo not drawn) |  | inactive
CSc1cccc(NC(=O)C(C)Sc2ccc(C)cc2)c1 (stereo not drawn) | inactive: 55.1% | 
Cc1cc(C)c2c(c1)C1C=CCC1C(c1ccc(S(=O)(=O)N3CCOCC3)cc1)N2 (stereo not drawn) | inactive: -23.4% | 
CC(=O)O[C@H]1C(=O)[C@@]2(C)C([C@H](OC(=O)c3ccccc3)[C@]3(O)C[C@H](OC(=O)[C@H](O)[C@@H](NC(=O)c4ccccc4)c4ccccc4)C(C)=C1C3(C)C)[C@]1(OC(C)=O)CO[C@@H]1C[C@@H]2O (stereo partly drawn) |  | inactive

SMILES | activity change, negative = inhibition | Potency
NCCSSCCN | inactive: -6.78% | 
CCCCCN(CCCCC)C(=O)C(CCC(=O)O)NC(=O)c1ccc(Cl)c(Cl)c1 (stereo not drawn) |  | inactive
CC(C)NCC(O)c1ccc(O)c(O)c1 (stereo not drawn) | inactive: -16.3% | 
c1ccc(-c2nnc(CSc3nnc(-c4cccs4)o3)o2)cc1 | inactive: 68.3% | 
O=C(O)CCC(=O)Nc1sc2c(c1C(=O)Nc1ccccc1)CCCCC2 | inactive: -34.7% | 
CCOC(=O)/C=C/C(=O)N1CCc2ccccc21 | inactive: 58.1% | 
COC(CNC(=O)c1cn(C)c2ccc(S(=O)(=O)N(C)C3CCCCC3)cc2c1=O)OC | inactive: 67.5% | 
COCCCN1C(=O)C(=O)/C(=C(/O)c2ccc(OC)cc2C)C1c1cccnc1 (stereo not drawn) | inactive: 54.3% | 
CCN(CC)C(=S)SSC(=S)N(CC)CC |  | inactive and active: 1.06 µM
Cc1nnc(NC(=O)c2nc(S(=O)(=O)Cc3ccccc3)ncc2Cl)s1 | inactive: 9.18% | 
CCCc1nnc(NC(=O)c2nc(S(=O)(=O)Cc3ccc(C)cc3)ncc2Cl)s1 | inactive: -41.1% | 
Nc1c2c(nc3ccccc13)CCCC2 |  | inactive
O=C1/C(=C/c2cccnc2)Sc2ccccc21 | inactive: -51.9% | 
Cc1sc2nc(CN(CCc3ccccc3)C(=O)c3ccco3)[nH]c(=O)c2c1C | inactive: 164% | 
CCc1ccc2c(-c3cccc(Cl)c3)nc(=O)n(CC)c2n1 | inactive: -102% [at 56.9 µM] | 
CN1C(=O)CCC1c1cccnc1 (stereo not drawn) | inactive: -124% [at 56.9 µM] | 
O=C1CN(/N=C/c2ccc(-c3ccc([N+](=O)[O-])cc3)o2)C(=O)N1 | inactive: 440% [at 56.9 µM] | 
COC(=O)C(C)(N)Cc1ccc(O)cc1 (stereo not drawn) | inactive: -27.7% | 
NC(N)=NC(=O)c1nc(Cl)c(N2CCCCCC2)nc1N | inactive: -1.04% | 
CCN(CC)CCOC(=O)C(Cc1cccc2ccccc12)CC1CCCO1 (stereo not drawn) | inactive: 59.3% | 
CC1=C(/C=C/C(C)=C/C=C/C(C)=C/C(=O)Nc2ccc(O)cc2)C(C)(C)CCC1 |  | inactive
Cc1ccc(-c2n[nH]c3c2CCC3)cc1 | inactive: 57.4% | 
Nc1ncnc2c1ncn2[C@@H]1O[C@H](COP(=O)(O)O)[C@@H](O)[C@H]1O | inactive: -16.8% | 
Cc1oc(-c2ccccc2)cc1C(=O)Nc1cccc(/C=C\C(=O)O)c1 | inactive: -24.8% | 
CCCCCCCCCCCCCCC[C@@H](O)[C@@H](N)CO | inactive: 12.5% | 
OC[C@H]1O[C@@H](O[C@@H]2[C@@H](CO)O[C@@](O)(CO)[C@H]2O)[C@H](O)[C@@H](O)[C@H]1O | inactive: 16.4% | 

SMILES | activity change, negative = inhibition | Potency
Cc1cccc(C)c1NC(=O)C(NS(=O)(=O)c1cccs1)c1ccccc1 (stereo not drawn) | inactive: -2.48% | 
Oc1ccc(NCc2ccccc2OCc2ccccc2F)cc1 | inactive: -40% | 
Cc1c(Cl)cccc1NS(=O)(=O)c1ccc(-c2ccc(=O)[nH]n2)o1 | inactive: 64.6% | 
CC(=O)OCC(=O)[C@@]1(O)CC[C@H]2[C@@H]3CCC4=CC(=O)CC[C@]4(C)[C@H]3C(=O)C[C@@]21C |  | inactive
O=C1c2c(O)cc(O)cc2O[C@H](c2ccc(O)c(O)c2)[C@H]1O | inactive: 1.48% | 
COc1cc(OC)c(C(=O)OCC(=O)NC2CCCCCCC2)cc1OC | inactive: 93.4% | 
NC(=O)c1ncn([C@@H]2O[C@H](CO)[C@@H](O)[C@H]2O)c1O |  | inactive
Cc1ccc(C(=O)Nc2ccc(S(=O)(=O)O)c3cc(S(=O)(=O)O)cc(S(=O)(=O)O)c23)cc1NC(=O)c1cccc(NC(=O)Nc2cccc(C(=O)Nc3cc(C(=O)Nc4ccc(S(=O)(=O)O)c5cc(S(=O)(=O)O)cc(S(=O)(=O)O)c45)ccc3C)c2)c1 | inactive: 168% [at 56.9 µM] | 
O=c1oc2ccccc2cc1-c1nc2c(s1)CCc1ccccc1-2 | inactive: -40.8% | 
CC[C@]1(O)CC2CN(CCc3c([nH]c4ccccc34)[C@@](C(=O)OC)(c3cc4c(cc3OC)N(C=O)[C@H]3[C@@](O)(C(=O)OC)[C@H](OC(C)=O)[C@]5(CC)C=CCN6CC[C@]43[C@@H]65)C2)C1 (stereo partly drawn) | inactive: -0.087% | 
O=C(Nc1cccc2nsnc12)c1cccs1 | inactive: -9.37% | 
O=C(NCc1cccnc1)/C(=C/c1ccc(-c2cccc(Cl)c2)o1)S(=O)(=O)c1ccccc1 | inactive: -22.1% | 
N#CC(=Cc1ccc(O)cc1)C(N)=C(C#N)C#N | inactive: -16.5% | 
O=C(O)C1=CCNCC1 | inactive: 4% | 
CCOC(=O)[C@@H]1[C@H]2COc3cc(OC)ccc3[C@@H]2N2C(=O)N(c3ccc(C(F)(F)F)cc3)C(=O)[C@@]12C | inactive: 3.86% | 
O=C1OC[C@H]2CCCN2C(=O)[C@@H](CC(=O)N(CCO)Cc2ccccc2)C/C=C\C[C@@H]1Cc1ccc(F)cc1 | inactive: -13.9% | 
COc1ccccc1-n1c(SCC(=O)O)nc2c(sc(=S)n2-c2ccccc2C)c1=O | inactive: 55.9% | 
CC12C=CC(=O)C=C1CCC1C3CCC(O)(C(=O)CO)C3(C)CC3OC312 (stereo not drawn) | inactive: -24.6% | 
CCC1CCCCN1CCCNC(=O)CCCNC(=O)Cn1cnc2sc3c(c2c1=O)CCCC3 (stereo not drawn) | inactive: 70% | 
CC(N)(C(=O)O)c1ccc(C(=O)O)cc1 (stereo not drawn) | inactive: 19.2% [at 56.9 µM] | 
CN1CCc2cccc3c2C1Cc1ccc(O)c(O)c1-3 (stereo not drawn) | inactive: -52.5% | 
CCC(=O)N[C@@H]1CCc2cccc(OC)c2C1 | inactive: 468% [at 56.9 µM] | 
Cn1c(=O)c2[nH]c(-c3ccc(S(=O)(=O)O)cc3)nc2n(C)c1=O |  | inactive
CN(C)CCCSc1ccccc1NC(=O)/C=C\c1ccccc1 | inactive: -41.5% [at 56.9 µM] | 
CCN(CC)CCCC(C)Nc1c2ccc(Cl)cc2nc2ccc(OC)cc12 (stereo not drawn) |  | active: 21.2 µM
O=C(O)[C@@H]1C[C@@H](C(=O)O)N1 | inactive: 14.3% [at 56.9 µM] | 

SMILES | activity change, negative = inhibition | Potency
CC(C)NCC(O)c1ccc(NS(C)(=O)=O)cc1 (stereo not drawn) |  | inactive
Cc1cccc(CCN2CCC(C(=O)c3ccc(NS(C)(=O)=O)cc3)CC2)n1 | inactive: 161% [at 56.9 µM] | 
C#C[C@]1(O)CCC2C3CCC4=Cc5oncc5CC4(C)C3CCC21C (stereo partly drawn) | inactive: 16% | 
Nc1ncnc2c1ncn2C1OC(C(=O)NC2CC2)C(O)C1O (stereo not drawn) | inactive: 12.6% | 
CNc1cc(NS(=O)(=O)c2ccc(N)cc2)nc(NC)n1 | inactive: 13% | 
C[N+](C)(CCCCCC[N+](C)(C)CCCN1C(=O)c2ccccc2C1=O)CCCN1C(=O)c2ccccc2C1=O | inactive: 280% [at 56.9 µM] | 
CCN1/C(=C/c2ccc3cc(C)ccc3[n+]2CC)Sc2cc(C)c(C)cc21 | inactive: -35% | 
CCN(CC)CCNC(=O)c1ccc(NC(C)=O)cc1 |  | inactive
CCC(=O)/C=C1\Sc2ccc(OC)cc2N1CCO | inactive: -39.1% | 
O=C1SC(SC(=Nc2ccccc2)Nc2ccccc2)C(=O)N1c1ccccc1 (stereo not drawn) | inactive: -25.9% | 
COCCN(C(=O)CSc1ncccn1)c1c(N)n(Cc2ccccc2)c(=O)[nH]c1=O | inactive: 60.9% | 
COc1ccc(CC(=O)NCCc2cnc[nH]2)cc1 | inactive: 55% | 
NC(C(=O)O)c1cccc(O)c1 (stereo not drawn) | inactive: 150% [at 56.9 µM] | 
COC(=O)[C@H]1[C@H]2C[C@@H]3c4[nH]c5cc(OC)ccc5c4CCN3C[C@H]2C[C@@H](OC(=O)c2cc(OC)c(OC)c(OC)c2)[C@@H]1OC | inactive: -29.6% | 
CCn1c(SCC(=O)N2CCN(c3ccc(Cl)cc3)CC2)nc2ccccc2c1=O | inactive: 0.958% | 
CCCCOc1ccc(/C=C/C2=CC(C)(C)NC(=S)N2)cc1OCC | inactive: 80.7% | 
Clc1ccc2c(c1)N=C(N1CCNCC1)c1ccccc1N2 | inactive: 410% [at 56.9 µM] | 
CCOC(=O)N/N=C/c1ccccc1F | inactive: 59.6% | 
O=C(Nc1ccc2nsnc2c1)C1CC1 | inactive: 60.5% | 
Nc1ncnc2c1ncn2C1OC(CO)C(O)C1O (stereo not drawn) | inactive: 6.18% | 
O=C(Nc1cccnc1)c1cc(-c2cccc(Cl)c2)on1 | inactive: -3.94% | 
COc1ccc(-c2nn(C)c3sc(C(=O)NCCN(C)C)cc23)cc1OC | inactive: -24.5% | 
C[C@@H](NC(=O)[C@@H]1Cc2ccccc2CN1)C(=O)NCC1CCCO1 (stereo partly drawn) | inactive: 54.8% | 
CCOc1cccc(C(=O)NC(c2ccccc2)C(C)C)c1 (stereo not drawn) | inactive: 60.4% | 
COc1cc2c(CCNC(C)=O)c[nH]c2cc1O | inactive: -0.522% | 
